From PubChem BioAssay AID1030 (National Center for Advancing Translational Sciences (NCATS), 2008)
Screen size: about 220,000 compounds; about 16,000 (7.3%) were called active. The inconclusive results got no clear call from the source; some entries with a clear call stand among them for comparison. Calls follow the shape of the dose curve; as a rule, active = well fitted inhibition curve with a large enough effect (not every such curve was filed as active); inconclusive = small, poorly fitted or top-dose-only effect, or another doubt; inactive = no such curve, though single readings can be large or run the other way. No potency is given beside an inconclusive call; the fits are too rough.

Molecular target: Aldehyde dehydrogenase 1A1 (Homo sapiens) (UniProt P00352)
Sequence of UniProt P00352 (P00352 whole entry, looked up): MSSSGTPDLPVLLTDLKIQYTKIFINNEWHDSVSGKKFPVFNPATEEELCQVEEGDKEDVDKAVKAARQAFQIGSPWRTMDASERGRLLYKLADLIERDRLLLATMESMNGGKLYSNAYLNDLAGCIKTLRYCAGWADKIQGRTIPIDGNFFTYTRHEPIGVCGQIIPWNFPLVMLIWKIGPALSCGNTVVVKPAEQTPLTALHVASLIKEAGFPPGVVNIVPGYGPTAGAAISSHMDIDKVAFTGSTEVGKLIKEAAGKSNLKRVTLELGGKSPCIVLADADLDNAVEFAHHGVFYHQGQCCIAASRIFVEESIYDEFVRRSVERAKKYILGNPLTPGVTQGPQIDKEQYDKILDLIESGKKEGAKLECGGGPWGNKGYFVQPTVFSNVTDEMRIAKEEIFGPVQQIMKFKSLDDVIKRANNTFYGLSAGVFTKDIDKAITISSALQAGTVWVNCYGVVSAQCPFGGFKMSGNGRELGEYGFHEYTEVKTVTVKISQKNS
Test: qHTS Assay for Inhibitors of Aldehyde Dehydrogenase 1 (ALDH1A1)
Conditions: Purified ALDH1A1, NADH fluorescence, propionaldehyde substrate; series mostly up to 75.3 µM
Potency is read from the fitted curve at half-maximal effect; tags tell the direction and shape of the fitted curve.

SMILES | Potency
O=c1nc2ccccc2c(NS(=O)(=O)c2ccccc2)n1-c1ccccc1 | active: 0.891 µM
COc1ccc(N=C2S/C(=C\c3cc(C)n(C)c3C)C(=O)N2C)cc1 | inconclusive [inhibitor, partial curve]
N#C/C(=C/c1ccc(N2CCCCC2)o1)c1cccc(F)c1 | inconclusive [inhibitor, single point]
COc1ccc(S(=O)(=O)N2CCN(C(=O)c3c(-c4ccccc4)noc3C)CC2)cc1 | inconclusive [inhibitor, partial curve]
CCOC(=O)CSc1nc(N)nc(C)c1Br | inconclusive [inhibitor, single point]
COc1ccc(/C=N/NC(=O)c2[nH]c3ccc(Br)cc3c2-c2ccccc2)cc1 | inconclusive [inhibitor, partial curve]
O=C(CSC1=N/C(=C/c2ccc(Cl)c(Cl)c2)C(=O)N1c1ccccc1F)NC1CC1 | inconclusive [inhibitor, partial curve]
Cc1ccsc1/C=N/n1c(-c2ccccc2)n[nH]c1=S | inconclusive [inhibitor, full curve]
O=C(/C=C/c1ccccc1)c1ccc(O)cc1O | inconclusive [inhibitor, single point]
Cc1ccc2[nH]c(=O)c3cc(C(=O)NCCN4CCN(C)CC4)sc3c2c1 | inconclusive [inhibitor, partial curve]
CCC1(C)Cc2c(sc3nc(NC)n(C)c(=O)c23)CO1 (stereo not given) | inconclusive [inhibitor, partial curve]
CC(C)C(NC(=O)OCc1ccccc1)C(=O)NCc1ccc(C(=O)O)cc1 (stereo not given) | inactive
CC(=O)Nc1ccc(NC(=O)Nc2ccc3c(c2)N(C)C(=O)CS3)cc1 | inconclusive [inhibitor, single point]
CSc1ccccc1C(=O)C1CCCN(S(=O)(=O)N(C)C)C1 (stereo not given) | inconclusive [inhibitor, single point]
COc1cc2cc(CN(CCN3CCCC3)C(=O)Nc3ccc(F)cc3)c(=O)[nH]c2cc1OC | inconclusive [inhibitor, partial curve]
CCOC(=O)c1nonc1NC(C)=O | inactive
Cc1ccc2c(COC(=O)c3n[nH]c4ccccc34)cc(=O)oc2c1 | inconclusive [inhibitor, partial curve]
CCOC(=O)C1=C(C)Nc2ccccc2N=C1NC(=O)C(c1ccccc1)c1ccccc1 | active: 0.141 µM
Cc1nn(CCc2nn[nH]n2)c2nc(C(F)(F)F)cc(C(F)(F)F)c12 | inconclusive [inhibitor, partial curve]
Cn1c(SCC(=O)c2ccc3c(c2)OCO3)nnc1C1COc2ccccc2O1 (stereo not given) | inconclusive [inhibitor, single point]
COc1cccc(NC(=S)NCCN2CCOCC2)c1 | inactive
CCOC(=O)c1cnc2cc(C)ccn2c1=O | inconclusive [inhibitor, partial curve]
CC1(C)CC(=O)c2ccc(O)cc2O1 | inconclusive [inhibitor, single point]
COC(=O)c1ccccc1NC(=O)Cn1c(SC)c(F)cnc1=O | inconclusive [inhibitor, partial curve]

SMILES | Potency
CCOc1ccc(OCCCCn2cnc3ccccc3c2=O)cc1 | inactive
Nc1cc(N)nc(SCc2cc(=O)oc3cc4c(cc23)CCC4)n1 | inconclusive [inhibitor, single point]
Cc1c(C=O)c(Cl)n(C)c(=O)c1C#N | inactive
Cc1cccnc1NC(=O)CSc1nnc(COc2ccc(C(C)C)cc2)n1C | inactive
Cc1nc2cnc(Oc3cccc(Cl)c3)nc2n(C2CC2)c1=O | inconclusive [inhibitor, single point]
COc1cccc(-c2nn(C)c3sc(C(=O)N4CCN(c5ccccc5)CC4)cc23)c1 | inconclusive [inhibitor, single point]
CC#CCCC(=O)N1C=Cc2ccccc2C1C#N (stereo not given) | inconclusive [inhibitor, single point]
COc1cc(-c2nc(S(=O)(=O)c3ccc(Cl)cc3)c(N3CCOCC3)o2)cc(OC)c1OC | active: 1 µM
Cc1ccc2[nH]c(C(=O)NN=C3CCCCC3)c(-c3ccccc3)c2c1 | active: 1.41 µM
Cc1ccc(NC(=S)N/N=C2\CC(C)(C)Oc3ccc(O)cc32)cc1 | inconclusive [inhibitor, partial curve]
COCc1[nH]nc2c1C1(C(=O)Nc3ccc(F)cc31)C(C#N)=C(N)O2 (stereo not given) | inactive
C/C(=N\NC(=S)Nc1cccc(C)c1)c1cc2ccccc2o1 | inconclusive [inhibitor, single point]
O=C(NCCN1C(=O)S/C(=C\c2cccs2)C1=O)c1ccco1 | inconclusive [inhibitor, single point]
Cc1ccc2oc3c(c(=O)c2c1)C(c1ccc(F)cc1)N(CCCN1CCOCC1)C3=O (stereo not given) | active: 3.55 µM
Cc1ccc([N+](=O)[O-])c(NC2OC(CO)C(O)C2O)c1 (stereo not given) | inactive
CCCCc1cc2c(cn1)=C(OC(=O)c1ccco1)C(C)(OC(=O)CC)C(=O)C=2 (stereo not given) | active: 2 µM
S=C(NCc1ccc(Cl)c(Cl)c1)Nc1ccc2c(c1)OCO2 | inconclusive [inhibitor, partial curve]
Cc1ccc(OCc2nc(C#N)c(NCc3ccc4c(c3)OCO4)o2)cc1 | inconclusive [inhibitor, single point]
CCn1cc(C(C)NC(=O)Nc2ccccc2C(=O)OC)c(C)n1 (stereo not given) | inconclusive [inhibitor, single point]
CCOC(=O)CNC(=O)CSc1nnc(SCC(=O)NCC(=O)OCC)s1 | active: 0.251 µM
CCn1c(SCC(=O)Nc2ccc(NC(=O)c3ccco3)c(OC)c2)nc2ccccc2c1=O | inconclusive [inhibitor, partial curve]
CCCn1c(C)nc2c(N3CCOCC3)nc(C)nc21 | inactive
COc1cccc(-c2nc(NC(C)(C)C)c3ccccc3n2)c1O | inconclusive [inhibitor, partial curve]
COc1cc(C2C(C#N)=C(N)Oc3cc(C)n(Cc4ccccn4)c(=O)c32)cc2c1OCO2 (stereo not given) | inactive

SMILES | Potency
COc1cccc(CN(CC2CCCO2)C(=O)c2cc3ccccc3oc2=O)c1 (stereo not given) | active: 15.8 µM
COc1cccc(/C=C/C(=O)OCC(=O)Nc2ccc(Cl)c(S(=O)(=O)N(C)C)c2)c1OC | inconclusive [inhibitor, single point]
CCN(CC)c1nc2c(s1)C(=O)CC(C)(C)C2 | active: 12.6 µM
CCC(c1nnnn1Cc1ccco1)N1CCC(C(N)=O)CC1 (stereo not given) | inconclusive [inhibitor, single point]
COc1ccccc1S(=O)Cc1ccc(C(=O)NC2CCCC2)o1 (stereo not given) | inconclusive [inhibitor, single point]
CCOC(=O)CSc1cc(=O)n(CC)c2ccccc12 | inconclusive [inhibitor, single point]
O=S(=O)(Nc1cc(C(F)(F)F)ccc1N1CCOCC1)c1ccccc1 | inconclusive [inhibitor, partial curve]
C=CCNC(=S)Nc1sc2c(c1C#N)CCCC2 | inconclusive [inhibitor, single point]
COCCN(CCOC)C(=O)c1cc2sc3ccccc3c2s1 | inconclusive [inhibitor, single point]
COc1cc2c(C)nc3onc(-c4ccccc4)c3c2cc1OC | inconclusive [inhibitor, partial curve]
CCC(C(=O)NCc1ccccc1OC)c1ccccc1 (stereo not given) | inactive
CCC1CCCCN1C(=O)c1cccc(S(=O)(=O)Nc2cc(C(F)(F)F)ccc2Cl)c1 (stereo not given) | inconclusive [inhibitor, single point]
Cc1cc2nc(C3CCN(CC4COc5ccccc5O4)CC3)[nH]c2cc1C (stereo not given) | inactive
COCCOCC(O)CN1CCN(c2ccc(C)cc2)CC1 (stereo not given) | active: 11.2 µM
Cc1cc(C)c2nc(-c3ccccn3)cc(C(=O)NCc3ccco3)c2c1 | inconclusive [inhibitor, single point]
Cc1ccc(-c2nc(CSCC(=O)N3CCN(c4ccccn4)CC3)c(C)o2)cc1 | inconclusive [inhibitor, partial curve]
COC(=O)c1ccc(S(=O)(=O)NNC(=O)c2ccc(S(=O)(=O)N3CCCCC3)cc2)cc1 | inconclusive [inhibitor, single point]
CC(C)CC(=O)Nc1ccc2nn(-c3ccccc3)nc2c1 | inconclusive [inhibitor, partial curve]
COc1cc(OC)cc(C(=O)N[C@H](C(=O)Nc2nc3c(s2)CCCC3)C(C)C)c1 | inconclusive [inhibitor, single point]
CCOC(=O)C1=C(C)NC(=O)NC1c1ccc(-c2ccc(F)cc2)o1 (stereo not given) | inconclusive [inhibitor, single point]
O=[N+]([O-])c1cc(CN2CCN(c3cccc(C(F)(F)F)c3)CC2)c2cccnc2c1O | active: 17.8 µM
Cc1ccc(C)n1-c1ccc(C(=O)NCc2ccncc2)cc1 | inconclusive [inhibitor, single point]
